The other results are listed elsewhere or left out. Single values are uncertain, as repeats are few or missing.
Legend:
Assay in all cases: cell count relative to DMSO control; melanoma cells; higher = more viable cells
Conditions in all cases: library dose: standard library concentration; 72 h
[1] = system: G361
[2] = system: IPC-298
[3] = system: IST-MEL1
[4] = system: LB2518-MEL
[5] = system: LOXIMVI
[6] = system: MEL-HO
[7] = system: MZ2-MEL
[8] = system: MeWo
[9] = system: RPMI7951
[10] = system: RVH-421
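Further: cells treated in 1,536-well plates, then fixed and DAPI-stained, with nuclei counted from automated high-throughput microscope images.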

SMILES | cell count [1] [%] | cell count [2] [%] | cell count [3] [%] | cell count [4] [%] | cell count [5] [%] | cell count [6] [%] | cell count [7] [%] | cell count [8] [%] | cell count [9] [%] | cell count [10] [%]
CC1(C)NC(=O)N(c2ccc([N+](=O)[O-])c(C(F)(F)F)c2)C1=O [nilutamide] + CN(C)S(=O)(=O)c1ccc2c(c1)/C(=C/c1cc3c([nH]1)CCCC3)C(=O)N2 [SU6656] (first compound 5 µM, partner dose 2 µM) | 74 | 89.6 | 79.3 | 69.9 | 100 | 84.4 | 97 | 86.9 | 46.7 | 89.1
C[C@@H]1CCN(C(=O)CC#N)C[C@@H]1N(C)c1ncnc2[nH]ccc12 + COc1cc2c(Oc3ccc4[nH]c(C)cc4c3F)ncnc2cc1OCCCN1CCCC1 [cediranib] (first compound 5 µM, partner dose 2 µM) | 101 | 96.9 | 107 | 97.5 | 89.9 | 98.3 | 113 | 78.8 | 76.9 | 81.6
C[C@@H]1CCN(C(=O)CC#N)C[C@@H]1N(C)c1ncnc2[nH]ccc12 + COc1ccc(COc2ccc(Cc3cnc(N)nc3N)cc2OC)cc1 [GW2580] (first compound 5 µM, partner dose 5 µM) | 97.7 | 104 | 106 | 142 | 97.6 | 107 | 91.3 | 94.3 | 69.9 | 85.1
O=c1[nH]nc(Sc2ncc([N+](=O)[O-])s2)n1-c1ccc2c(c1)OCCO2 + COc1cc2ncnc(Nc3ccc(Oc4ccccc4)cc3)c2cc1OC [SrcI1] (first compound 1 µM, partner dose 10 µM) | 58.9 | 82.1 | 79 | 162 | 199 | 71.5 | 90.3 | 68.7 | 31.9 | 114
CC1(C)NC(=O)N(c2ccc([N+](=O)[O-])c(C(F)(F)F)c2)C1=O [nilutamide] + O=C(Nc1cccc(Cl)c1)Nc1ncc(CCNc2ncnc3ccsc23)s1 [SNS314] (first compound 5 µM, partner dose 0.004 µM) | 69.5 | 82 | 61.3 | 90.4 | 64.3 | 79.2 | 78.2 | 64.2 | 68.5 | 69.6
Cn1cncc1[C@@](N)(c1ccc(Cl)cc1)c1ccc2c(c1)c(-c1cccc(Cl)c1)cc(=O)n2C [tipifarnib] + CCCCCCCCCCCC1=C(O)C(=O)C=C(O)C1=O [Embelin] (first compound 0.05 µM, partner dose 6 µM) | 85.6 | 78.8 | 69.9 | 80.8 | 104 | 82.9 | 86.1 | 88.3 | 75.9 | 71.5
O=c1[nH]nc(Sc2ncc([N+](=O)[O-])s2)n1-c1ccc2c(c1)OCCO2 + O=C1NC(=O)/C(=C/c2ccc(-c3ccc(F)cc3O)o2)S1 [AS252424] (first compound 1 µM, partner dose 5 µM) | 100 | 102 | 106 | 120 | 111 | 96.3 | 107 | 87.6 | 113 | 108
O=c1[nH]nc(Sc2ncc([N+](=O)[O-])s2)n1-c1ccc2c(c1)OCCO2 + CC(C)C[C@H](NC(=O)[C@H](Cc1ccccc1)NC(=O)c1cnccn1)B(O)O [Bortezomib] (first compound 1 µM, partner dose 0.005 µM) | 2.64 | 10.1 | 13.3 | 3.4 | 15.9 | 35.9 | 4.56 | 16.5 | 3.22 | 14.2
O=c1[nH]nc(Sc2ncc([N+](=O)[O-])s2)n1-c1ccc2c(c1)OCCO2 + Nc1ccn([C@@H]2O[C@H](CO)[C@@H](O)C2(F)F)c(=O)n1 [gemcitabine] (first compound 1 µM, partner dose 0.002 µM) | 45.5 | 42.7 | 44.1 | 59.3 | 50.3 | 54.5 | 72.6 | 44.3 | 63.8 | 52.3
O=c1[nH]nc(Sc2ncc([N+](=O)[O-])s2)n1-c1ccc2c(c1)OCCO2 + Oc1nc(-c2ccc(C(F)(F)F)cc2)nc2c1CSCC2 [XAV939] (first compound 1 µM, partner dose 10 µM) | 88.6 | 89.7 | 99.4 | 78 | 90.6 | 84.6 | 85.3 | 80 | 70 | 113
O=C(Nc1cccc(Cl)c1)Nc1ncc(CCNc2ncnc3ccsc23)s1 + CCCCCCCCCCCC1=C(O)C(=O)C=C(O)C1=O [Embelin] (first compound 0.004 µM, partner dose 6 µM) | 75 | 78.8 | 36.6 | 88.6 | 87.1 | 65.7 | 55.4 | 61.5 | 67.5 | 29.9
O=C(Nc1cccc(Cl)c1)Nc1ncc(CCNc2ncnc3ccsc23)s1 + CCN(CC)CCCCNc1ncc2cc(-c3cc(OC)cc(OC)c3)c(NC(=O)NC(C)(C)C)nc2n1 [PD173074] (first compound 0.004 µM, partner dose 0.5 µM) | 75.1 | 80.1 | 65.1 | 82.6 | 76.2 | 70 | 81 | 75.6 | 46.3 | 59.5
COc1cc(Nc2ncc(F)c(Nc3ccc4c(n3)NC(=O)C(C)(C)O4)n2)cc(OC)c1OC [Tamatinib] + O=C(Nc1cccc(Cl)c1)Nc1ncc(CCNc2ncnc3ccsc23)s1 [SNS314] (first compound 2 µM, partner dose 0.004 µM) | 51.7 | 55.4 | 451 | 66.2 | 35.8 | 63 | 56 | 48.8 | 23.7 | 60.8
COc1cc(Nc2ncc(F)c(Nc3ccc4c(n3)NC(=O)C(C)(C)O4)n2)cc(OC)c1OC [Tamatinib] + CCN(CC)CCCCNc1ncc2cc(-c3cc(OC)cc(OC)c3)c(NC(=O)NC(C)(C)C)nc2n1 [PD173074] (first compound 2 µM, partner dose 0.5 µM) | 74.7 | 89.4 | 65.8 | 108 | 28.7 | 79.6 | 77 | 59.5 | 33.3 | 77.1
O=c1[nH]nc(Sc2ncc([N+](=O)[O-])s2)n1-c1ccc2c(c1)OCCO2 + Cc1ccc(Nc2nccc(N(C)c3ccc4c(C)n(C)nc4c3)n2)cc1S(N)(=O)=O [Pazopanib] (first compound 1 µM, partner dose 2 µM) | 97.9 | 73.6 | 107 | 81.5 | 129 | 93.8 | 82.3 | 114 | 89.5 | 103
COc1cc(Nc2ncc(F)c(Nc3ccc4c(n3)NC(=O)C(C)(C)O4)n2)cc(OC)c1OC [Tamatinib] + OCCn1cc(-c2cnc3nnn(Cc4ccc5ncccc5c4)c3n2)cn1 [PF04217903] (first compound 2 µM, partner dose 5 µM) | 76.7 | 81.1 | 65.7 | 83.2 | 25.3 | 77.1 | 85.4 | 59.1 | 26.1 | 82.9

SMILES | cell count [1] [%] | cell count [2] [%] | cell count [3] [%] | cell count [4] [%] | cell count [5] [%] | cell count [6] [%] | cell count [7] [%] | cell count [8] [%] | cell count [9] [%] | cell count [10] [%]
COc1cc(Nc2ncc(F)c(Nc3ccc4c(n3)NC(=O)C(C)(C)O4)n2)cc(OC)c1OC [Tamatinib] + NC(=O)Nc1cc(-c2cccc(F)c2)sc1C(=O)N[C@H]1CCCNC1 [AZD7762] (first compound 2 µM, partner dose 0.1 µM) | 75.3 | 81.4 | 15.1 | 95.6 | 18.6 | 82 | 89 | 82.5 | 27.8 | 111
COc1cc(Nc2ncc(F)c(Nc3ccc4c(n3)NC(=O)C(C)(C)O4)n2)cc(OC)c1OC [Tamatinib] + CCc1ccc(CCOc2ccc(CC3SC(=O)NC3=O)cc2)nc1 [pioglitazone] (first compound 2 µM, partner dose 10 µM) | 80.2 | 70.6 | 77.9 | 80.8 | 35.9 | 67.3 | 69.7 | 79.4 | 29.7 | 87.2
C[C@@H]1CCN(C(=O)CC#N)C[C@@H]1N(C)c1ncnc2[nH]ccc12 + CN(C)S(=O)(=O)c1ccc2c(c1)/C(=C/c1cc3c([nH]1)CCCC3)C(=O)N2 [SU6656] (first compound 5 µM, partner dose 2 µM) | 62.6 | 69.7 | 78.5 | 89.1 | 88.9 | 81.2 | 84.5 | 77 | 48.4 | 66.1
O=c1[nH]nc(Sc2ncc([N+](=O)[O-])s2)n1-c1ccc2c(c1)OCCO2 + CC1(C)CCC(c2ccc(Cl)cc2)=C(CN2CCN(c3ccc(C(=O)NS(=O)(=O)c4ccc(N[C@H](CCN5CCOCC5)CSc5ccccc5)c(S(=O)(=O)C(F)(F)F)c4)cc3)CC2)C1 [ABT263] (first compound 1 µM, partner dose 2 µM) | 77.9 | 102 | 77 | 77.8 | 19.4 | 65.8 | 83 | 82.7 | 30.8 | 44.2
O=C(Nc1cccc(Cl)c1)Nc1ncc(CCNc2ncnc3ccsc23)s1 + COc1ccc2c(c1)CCC1C2CCC2(C)C(NCCCCCCN3C(=O)C=CC3=O)CCC12 [U73122] (first compound 0.004 µM, partner dose 2 µM) | 78.7 | 116 | 91 | 85.9 | 71.5 | 102 | 84 | 47.6 | 38 | 73.6
O=C(O)c1ccc(-c2c[nH]c3ncc(-c4ccccc4)cc23)cc1C1CCCC1 + c1cc(-c2cnn3cc(-c4ccc(OCCN5CCCCC5)cc4)cnc23)ccn1 [Dorsomorphin] (first compound 0.8 µM, partner dose 2 µM) | 32.2 | 73.6 | 63.9 | 75.8 | 101 | 69.4 | 58.6 | 61.6 | 56.4 | 105
O=C(Nc1cccc(Cl)c1)Nc1ncc(CCNc2ncnc3ccsc23)s1 + Oc1cc(-c2nc(-c3ccccc3)[nH]c2-c2ccncc2)ccc1Cl [L779450] (first compound 0.004 µM, partner dose 1 µM) | 54.9 | 73.7 | 67.9 | 72 | 113 | 66.1 | 88.6 | 70.9 | 46.5 | 68.8
O=c1[nH]nc(Sc2ncc([N+](=O)[O-])s2)n1-c1ccc2c(c1)OCCO2 + COc1ccc(COc2ccc(Cc3cnc(N)nc3N)cc2OC)cc1 [GW2580] (first compound 1 µM, partner dose 5 µM) | 111 | 108 | 99.7 | 103 | 91.1 | 104 | 105 | 96.2 | 105 | 86.8
O=c1[nH]nc(Sc2ncc([N+](=O)[O-])s2)n1-c1ccc2c(c1)OCCO2 + Nc1ncn([C@H]2C[C@H](O)[C@@H](CO)O2)c(=O)n1 [decitabine] (first compound 1 µM, partner dose 0.5 µM) | 73.1 | 60.9 | 70.3 | 87.1 | 45.8 | 66.5 | 69.6 | 55.3 | 71.4 | 76.9
CC1(C)NC(=O)N(c2ccc([N+](=O)[O-])c(C(F)(F)F)c2)C1=O [nilutamide] + N#Cc1c(O)c2c(-c3ccc(-c4ccccc4O)cc3)csc2[nH]c1=O [A769662] (first compound 5 µM, partner dose 10 µM) | 94 | 116 | 89.8 | 80.8 | 89.8 | 91.6 | 120 | 99.5 | 100 | 102
O=c1[nH]nc(Sc2ncc([N+](=O)[O-])s2)n1-c1ccc2c(c1)OCCO2 + Cc1nc(Nc2ncc(C(=O)Nc3c(C)cccc3Cl)s2)cc(N2CCN(CCO)CC2)n1 [dasatanib] (first compound 1 µM, partner dose 0.02 µM) | 75.1 | 76.1 | 77.8 | 67.7 | 32.8 | 71.1 | 49.5 | 69.1 | 42.5 | 66.8
C[C@@H]1CCN(C(=O)CC#N)C[C@@H]1N(C)c1ncnc2[nH]ccc12 + COC(=O)c1sccc1S(=O)(=O)Nc1ccc(Nc2ccccc2)cc1OC [GSK0660] (first compound 5 µM, partner dose 5 µM) | 101 | 88.9 | 107 | 98.6 | 113 | 95 | 88.2 | 106 | 101 | 14.6
O=c1[nH]nc(Sc2ncc([N+](=O)[O-])s2)n1-c1ccc2c(c1)OCCO2 + COc1cc(Nc2ncc(F)c(Nc3ccc4c(n3)NC(=O)C(C)(C)O4)n2)cc(OC)c1OC [Tamatinib] (first compound 1 µM, partner dose 2 µM) | 80 | 87.5 | 70.6 | 90.3 | 29.1 | 85.8 | 71.7 | 81.9 | 49.1 | 79.8
COc1cc(Nc2ncc(F)c(Nc3ccc4c(n3)NC(=O)C(C)(C)O4)n2)cc(OC)c1OC [Tamatinib] + NCC(=O)Nc1ccc(-n2nc(C(F)(F)F)cc2-c2ccc3c(ccc4ccccc43)c2)cc1 [OSU03012] (first compound 2 µM, partner dose 5 µM) | 51 | 65 | 38.1 | 70.3 | 15.5 | 37.2 | 76.2 | 63 | 60.9 | 66.9
O=c1[nH]nc(Sc2ncc([N+](=O)[O-])s2)n1-c1ccc2c(c1)OCCO2 + COc1ccc(-c2ccc3c(N4CCOCC4)nc(N4C[C@@H](C)O[C@@H](C)C4)nc3n2)cc1CO [KU0063794] (first compound 1 µM, partner dose 0.1 µM) | 86.2 | 71.5 | 93.2 | 83 | 108 | 83.6 | 92.5 | 90.4 | 97.1 | 40.6

Source: the supplement of paper PMC4604168 (melanoma cell lines)
